# Experimental data from PubChem BioAssay AID485294 (National Center for Advancing Translational Sciences (NCATS), 2010).
# Hit rate of the full screen: of about 370,000 compounds, about 150 (0.041%) were called active. The shares of active, inactive and inconclusive entries below differ from those in the screen. Calls follow the shape of the dose curve; as a rule, active = well fitted inhibition curve with a large enough effect; inconclusive = small, poorly fitted or top-dose-only effect; inactive = flat fitted curve, though single readings scatter. Potencies of inconclusive entries are left out as doubtful fits.
# Target: Beta-lactamase (Escherichia coli (strain K12)) (UniProt P00811)
# UniProt P00811, sequence (P00811 whole entry, looked up): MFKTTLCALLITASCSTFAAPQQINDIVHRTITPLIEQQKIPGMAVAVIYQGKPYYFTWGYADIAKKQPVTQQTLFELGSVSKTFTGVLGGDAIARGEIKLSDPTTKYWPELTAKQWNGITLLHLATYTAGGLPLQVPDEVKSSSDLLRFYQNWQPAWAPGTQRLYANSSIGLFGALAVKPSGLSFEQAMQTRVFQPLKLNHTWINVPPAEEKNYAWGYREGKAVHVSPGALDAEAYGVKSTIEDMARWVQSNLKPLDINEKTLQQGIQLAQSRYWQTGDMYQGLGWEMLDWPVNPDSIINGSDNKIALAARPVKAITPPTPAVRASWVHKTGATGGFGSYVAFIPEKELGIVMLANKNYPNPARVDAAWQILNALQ
# Assay: qHTS Inhibitors of AmpC Beta-Lactamase (assay with detergent); also: nearly all actives have a fitted effect of over 25% in size;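 as to activity change, negative = inhibition: 0% = no-compound wells and -100% = no-enzyme wells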
# Settings: AmpC hydrolysis of nitrocefin, absorbance 480 nm, 0.01% Triton; activity change, negative = inhibition: at 114 µM (top of the series)
# Procedure, shortened: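 20 mM phosphate pH 7.0 + 0.01% (detergent screen) or 0.0001% Triton X-100; 5.3 nM AmpC reagent; cpd preinc 15 min RT; nitrocefin (800 uM stock) to start; A480 q20 s × 4 min; Activity was normalised to no-enzyme and no-compound control wells.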
# Potency is read from the fitted curve at half-maximal effect; tags tell the direction and shape of the fitted curve.
Structure (SMILES),"activity change, negative = inhibition",Potency
CCCc1nnc(NC(=O)c2cccnc2)s1,inactive: 3.34%,–
O=[N+]([O-])c1ccc(N2CCN(CCO)CC2)cc1NCc1ccco1,–,"inconclusive [inhibitor, full curve]"
CNC(=O)C1CC(=O)N(c2ccc(C)cc2)C1 (stereo not drawn),–,"inconclusive [inhibitor, partial curve, poor fit]"
CCOc1ccc(C(=O)CN2CCN(S(=O)(=O)c3ccc(Cl)cc3)CC2)cc1,inactive: -4.53%,–
CC(C)CC1(C(=O)NCc2cc(F)cc(C(F)(F)F)c2)C=CCN1C(=O)c1ccccc1 (stereo not drawn),–,"inconclusive [inhibitor, partial curve, poor fit]"
COc1ccc(NC(=O)CCS(=O)(=O)c2nc(-c3cccs3)cc(C(F)(F)F)n2)cc1,inactive: -4.25%,–
CC(C)(C)OC(=O)N1CCC(N2CCN(Cc3ccccc3)C(=O)C2=O)CC1,inactive: 13.3%,–
COc1ccc(/C=C(/CC(=O)Nc2ccccc2)c2nc3ccccc3s2)cc1,–,"inconclusive [inhibitor, full curve, poor fit]"
CCN(CC)C(=O)c1sc(NC(=O)c2cccnc2)c(C(=O)OC)c1C,–,"inconclusive [inhibitor, full curve, poor fit]"
COC(=O)c1c(-c2cccc(C)c2)csc1N,–,"inconclusive [inhibitor, full curve]"
Cc1c(CNC(C)CCc2ccccc2)c(C(=O)O)c(C)n1Cc1ccc(F)cc1 (stereo not drawn),inactive: 18.2%,–
COc1ccc(OC)c(Nc2nc(=O)c3cccnc3s2)c1,–,"inconclusive [inhibitor, full curve]"
COc1ccccc1C(=O)Nc1cccc(C(=O)OCc2cc(=O)n3c4c(sc3n2)CCCC4)c1,inactive: 0.725%,–
N#C/C(=N\Nc1ccc(S(=O)(=O)N2CCCCC2)cc1)C(N)=S,–,"inconclusive [inhibitor, full curve]"
COc1ccc(-c2cn3cc(Cl)ccc3n2)cc1OC,inactive: -15.8%,–
Cc1ccc(S(=O)(=O)N(CC(=O)Nc2ccc(F)cc2F)Cc2ccc(F)cc2)cc1,inactive: 4.51%,–
C=CCc1cccc(CNc2ccc(S(=O)(=O)Nc3nccnc3OC)cc2)c1O,–,"inconclusive [inhibitor, single point]"
O=C(/C=C/c1ccc(Cl)cc1Cl)Nc1ccc(CN2CCOCC2)cc1,–,"inconclusive [inhibitor, partial curve, poor fit]"
CN(C(=S)SCc1ccccc1)C1CCS(=O)(=O)C1 (stereo not drawn),–,"inconclusive [inhibitor, full curve, poor fit]"
CC(C)CCOC(=O)C[N+](C)(C)CCOC1CC2CCC1(C)C2(C)C (stereo not drawn),–,"inconclusive [inhibitor, partial curve]"
COc1ccccc1CN1CCCCC1c1cccnc1 (stereo not drawn),inactive: -5.14%,–
Cc1cccc(CCNS(=O)(=O)c2ccc3c(c2)NC(=O)C(C)S3)c1 (stereo not drawn),–,"inconclusive [inhibitor, full curve, poor fit]"
CCc1ccc2[nH]c(=O)c(CN(Cc3ccccc3OC)Cc3nnnn3Cc3ccco3)cc2c1,–,"inconclusive [inhibitor, partial curve, poor fit]"

Structure (SMILES),"activity change, negative = inhibition",Potency
COc1cccc(N2CCN(C(=O)CCSCc3ccccc3F)CC2)c1,–,"inconclusive [inhibitor, single point]"
CCOC(=O)N1CCN(C(=O)c2ccc3nc(C)sc3c2)CC1,–,"inconclusive [inhibitor, full curve, poor fit]"
COc1ccc2oc(=O)c(/C(N)=N/NC(=O)c3ccncc3)cc2c1,inactive: 1.04%,–
O=C(Nc1ccc(N2CCOCC2)c(Cl)c1)c1cc(F)c(F)cc1Cl,inactive: 3.14%,–
c1ccc(-c2nc3c(ccc4ccccc43)[nH]2)nc1,inactive: -14.8%,–
COc1ccc(CCNC2CC(=O)N(CCc3ccccc3)C2=O)cc1OC (stereo not drawn),–,"inconclusive [inhibitor, full curve, poor fit]"
O=C(N/N=C/C=C/c1ccco1)/C(=C/c1ccccc1)NC(=O)c1ccccc1,–,"inconclusive [inhibitor, partial curve]"
COc1cc([N+](=O)[O-])c(C(=O)N2CCOCC2)c([N+](=O)[O-])c1,–,"inconclusive [inhibitor, partial curve, poor fit]"
O=C(COC(=O)c1cc(S(=O)(=O)N2CCCCC2)ccc1N1CCOCC1)NC1CCCCC1,–,"inconclusive [inhibitor, full curve]"
Cc1ccc(N2C(=O)CC(N(CCc3ccccc3)C(=S)Nc3ccc(N(C)C)cc3)C2=O)cc1 (stereo not drawn),inactive: -12.3%,–
CC(C)(C)NC(=O)c1cc(Cl)ccc1[N+](=O)[O-],–,"inconclusive [inhibitor, single point]"
O=C(CCl)N(Cc1ccccc1)c1ccccc1,–,"inconclusive [inhibitor, single point]"
COc1ccc2c(OC)cc(-c3ccccc3)nc2c1,inactive: -6.17%,–
COc1ccc(CNC(=O)CC2N=C3c4ccccc4N=C(SCC(=O)Nc4ccc(C(C)C)cc4)N3C2=O)cc1 (stereo not drawn),inactive: 8.42%,–
CCOc1ccccc1C(c1c(C)n(C)n(-c2ccccc2)c1=O)c1c(C)n(C)n(-c2ccccc2)c1=O,–,"inconclusive [inhibitor, partial curve]"
COc1ccccc1CNC(=O)C(=O)NCC1OCCCN1S(=O)(=O)c1cccs1 (stereo not drawn),inactive: -1.24%,–
CCN1CCN(c2ccc(S(=O)(=O)N3CCCCC3)cc2NC(=O)/C=C/c2ccc(F)cc2)CC1,–,"inconclusive [inhibitor, full curve, poor fit]"
COc1ccc(CC(=O)NCCS(=O)(=O)N2CCN(c3ccccc3OC)CC2)cc1,–,"inconclusive [inhibitor, full curve, poor fit]"
COC(=O)c1cc2sc(Cl)cc2n1Cc1nc(-c2ccccc2)oc1C,–,"inconclusive [inhibitor, full curve]"
OC(CCCN1CCCCC1)(c1ccccc1)c1ccccc1,–,"inconclusive [inhibitor, partial curve, poor fit]"
Cc1ccc(NC(=O)NCC(c2cccnc2)N2CCOCC2)cc1 (stereo not drawn),–,"inconclusive [inhibitor, partial curve]"
COc1ccccc1-c1c(C)nn2c(C)c(C(C)=O)cnc12,–,"inconclusive [inhibitor, full curve, poor fit]"
C/C(=N\NC(=O)c1cccc(N/N=C(\C)c2ccco2)c1)c1ccco1,inactive: 1.16%,–

Structure (SMILES),"activity change, negative = inhibition",Potency
Cc1nc(CCNC(=O)CC2C(=O)NCCN2Cc2ccc(F)cc2)sc1C (stereo not drawn),inactive: 10.9%,–
CCNC(=S)N/N=C(\C)c1ccc2c(c1)OCCO2,inactive: -1.24%,–
CCN(CC)c1ccc(C(=O)Nc2ccccc2)cc1[N+](=O)[O-],–,"inconclusive [inhibitor, full curve, poor fit]"
O=C(Nc1nc2ccccc2s1)c1cccc(S(=O)(=O)N2CCc3ccccc32)c1,inactive: 5.96%,–
Cc1cc(-c2nnc(SCC(=O)Nc3ccc(Cl)cn3)n2N)n[nH]1,inactive: -6.36%,–
COc1ccc2c(c1)CCc1c(C(=O)Nc3ccn(Cc4ccc(C)cc4)n3)noc1-2,–,"inconclusive [inhibitor, single point]"
COc1ccccc1NC(=O)/C=C\c1ccco1,inactive: -4.28%,–
Cc1cc(C(=O)COC(=O)/C=C/c2cccc(Br)c2)c(C)n1C,–,"inconclusive [inhibitor, full curve, poor fit]"
NC(=S)N/N=C/c1ccc(-c2cc(Cl)ccc2Cl)o1,–,"inconclusive [inhibitor, full curve, poor fit]"
COCCCN=C1NN=C(c2cc(C)n(Cc3ccccc3Cl)c2C)CS1,–,"inconclusive [inhibitor, full curve, poor fit]"
Cn1c(C(C#N)C(=O)Cc2cccc3ccccc23)nc2ccccc21 (stereo not drawn),–,"inconclusive [inhibitor, full curve, poor fit]"
Cc1ccc(C)c(-c2nnc(NC(=O)COc3ccccc3)o2)c1,–,"inconclusive [inhibitor, full curve, poor fit]"
O=C(COC(=O)Cc1n[nH]c(=O)c2ccccc12)NNC(=O)c1ccccc1,–,"inconclusive [inhibitor, single point]"
CCn1ncc(/C=N\NC(=O)c2ccc3c(c2)c(C)c(C)n3Cc2ccccc2)c1C,–,"inconclusive [inhibitor, partial curve, poor fit]"
COc1ccc(NS(=O)(=O)c2ccc(N)c(C(=O)O)c2)cc1,–,"inconclusive [inhibitor, full curve, poor fit]"
COC(=O)c1scc(C)c1NC(=O)c1cccc(C#N)c1,–,"inconclusive [inhibitor, partial curve, poor fit]"
C(=N\N=C\c1ccccn1)/c1ccccn1,inactive: -12%,–
Cc1cc(C)n(-c2c(C)[nH]c3ccccc23)n1,inactive: -4.86%,–
CCCc1nc2ccccc2c(C(=O)OCc2nnc(-c3cc(OC)c(OC)c(OC)c3)o2)c1CC,–,"inconclusive [inhibitor, single point]"
Cc1cc(C)cc(NC(=O)CSc2nc3c(oc4ccccc43)c(=O)n2-c2ccccc2)c1,–,"inconclusive [inhibitor, full curve, poor fit]"
N#CCCN(C(=O)COC(=O)CNC(=O)c1ccc(-c2ccccc2)cc1)c1ccc(F)cc1,–,"inconclusive [inhibitor, full curve, poor fit]"
COc1cc(NS(=O)(=O)c2cccc3nsnc23)cc(OC)c1,–,"inconclusive [inhibitor, single point]"
